Source: the supplement of paper PMC4967469
pIC50: −log10 of the molar value. The IC50 comes from the fitted curve, where viability falls to half of the control; fits outside the tested doses are given as limits. AUC sums up the same curve from the lowest dose to the 256-fold higher top dose; it is 1 without any effect and falls as sensitivity rises. For part of these data: Where the top dose is marked as inferred, it was calculated from the reported fits. For part of these data: Drugs with an entry number were screened twice under separate entries, and the two screens often disagree.

Tests used:
Experiment in all cases: Viability of human cancer cell lines after 72 h of drug (GDSC screen)
Tretinoin = compound: CC1=C(/C=C/C(C)=C/C=C/C(C)=C/C(=O)O)C(C)(C)CCC1 [Tretinoin]; settings: top dose 10 µM; top dose inferred
Method: (§1)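 Human cancer cell lines in 384-well plates, medium with 10% serum, drug for 72 h over a 256-fold dose range (nine 2-fold or five 4-fold steps up to the top dose). Adherent lines were fixed and stained with the nucleic acid dye Syto60, suspension lines read with resazurin; signal relative to control wells, capped at 0 and 100%. One two-parameter sigmoid per drug and line, fitted in a mixed model over all curves with the slope shared within a line.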

UNC0638 = compound: COc1cc2c(NC3CCN(C(C)C)CC3)nc(C3CCCCC3)nc2cc1OCCCN1CCCC1 [UNC0638]
Method: as §1

SB-505124 = compound: Cc1cccc(-c2[nH]c(C(C)(C)C)nc2-c2ccc3c(c2)OCO3)n1 [SB-505124]; settings: top dose 10 µM; top dose inferred
Method: as §1

BX-795 = compound: O=C(NCCCNc1nc(Nc2cccc(NC(=O)N3CCCC3)c2)ncc1I)c1cccs1 [BX-795]; settings: top dose 5 µM; top dose inferred
Method: as §1

WH-4-023 = compound: COc1ccc(N(C(=O)Oc2c(C)cccc2C)c2ccnc(Nc3ccc(N4CCN(C)CC4)cc3)n2)c(OC)c1 [WH-4-023]; settings: top dose 5.12 µM; top dose inferred
Method: as §1

PI-103 = compound: Oc1cccc(-c2nc(N3CCOCC3)c3oc4ncccc4c3n2)c1 [PI-103]; settings: top dose 10.24 µM
Method: as §1

GSK690693 = compound: CCn1c(-c2nonc2N)nc2c(C#CC(C)(C)O)ncc(OC[C@H]3CCCNC3)c21 [GSK690693]; settings: top dose 10.24 µM; top dose inferred
Method: as §1

[1] = top dose 20 µM, screen: GDSC drug entry 1236, top dose inferred
[2] = top dose 40 µM, screen: GDSC drug entry 245

Cell Line	AUC (Tretinoin)	pIC50 (Tretinoin)	AUC (UNC0638; [1])	pIC50 (UNC0638; [1])	AUC (UNC0638; [2])	pIC50 (UNC0638; [2])	AUC (SB-505124)	pIC50 (SB-505124)	AUC (BX-795)	pIC50 (BX-795)	AUC (WH-4-023)	pIC50 (WH-4-023)	AUC (PI-103)	pIC50 (PI-103)	AUC (GSK690693)	pIC50 (GSK690693)
REH (B-cell leukaemia, suspension)	0.985	< 5.00	0.781	5.10	0.495	5.61	0.961	< 5.00	0.88	5.31	0.973	< 5.29	0.171	7.17	0.167	7.18
RF-48 (stomach, adherent)	0.957	< 5.00	0.984	< 4.70	0.628	5.23	0.979	< 5.00	0.958	< 5.30	0.959	< 5.29	0.377	6.55	0.797	5.26
RH-1 (rhabdomyosarcoma, adherent)	0.952	< 5.00	0.742	5.27	0.611	5.32	0.891	5.08	0.795	5.72	0.992	< 5.29	0.665	5.77	0.957	< 4.99
RKO (large intestine, adherent)	0.964	< 5.00	0.96	< 4.70	0.765	4.87	0.906	< 5.00	0.9	< 5.30	0.922	< 5.29	0.575	6.00	0.965	< 4.99
RL (B-cell lymphoma, suspension)	0.901	< 5.00	0.806	5.04	0.573	5.41	0.93	< 5.00	0.959	< 5.30	0.98	< 5.29	0.201	7.04	0.535	6.10
ROS-50 (B-cell leukaemia, suspension)	0.952	< 5.00	0.851	< 4.70	0.601	5.29	0.981	< 5.00	0.977	< 5.30	0.961	< 5.29	0.615	5.84	0.983	< 4.99
RPMI-6666 (Hodgkin lymphoma, suspension)	0.907	< 5.00	0.769	5.04	0.61	5.27	0.965	< 5.00	0.881	< 5.30	0.732	5.77	0.172	7.30	0.669	5.68
RPMI-8402 (T-cell lymphoblastic leukaemia, suspension)	0.986	< 5.00	0.667	5.48	0.462	5.70	0.965	< 5.00	0.718	5.94	0.924	< 5.29	0.149	7.17	0.283	6.76
RPMI-8866 (chronic myeloid leukaemia, suspension)	0.726	5.59	0.794	5.07	0.641	5.23	0.809	5.32	0.785	5.70	0.988	< 5.29	0.669	5.74	0.988	< 4.99
RXF393 (kidney, adherent)	0.978	< 5.00	0.799	4.85	0.691	4.97	0.924	< 5.00	0.854	< 5.30	0.31	7.12	0.407	6.49	0.806	5.11
Raji (Burkitt lymphoma, suspension)	0.98	< 5.00	0.766	5.16	0.732	4.96	0.973	< 5.00	0.979	< 5.30	0.98	< 5.29	0.805	5.32	0.989	< 4.99
Ramos-2G6-4C10 (Burkitt lymphoma, suspension)	0.875	5.13	0.816	5.04	0.716	5.04	0.957	< 5.00	0.733	5.89	0.93	< 5.29	0.259	6.83	0.961	< 4.99
SBC-1 (small cell lung carcinoma, suspension)	0.988	< 5.00	0.764	5.15	0.546	5.48	0.967	< 5.00	0.883	< 5.30	0.988	< 5.29	0.216	7.01	0.937	< 4.99
SCH (stomach, adherent)	0.984	< 5.00	0.831	4.85	0.923	< 4.40	0.985	< 5.00	0.888	< 5.30	0.988	< 5.29	0.93	< 4.99	0.975	< 4.99
SF126 (glioma, adherent)	0.986	< 5.00	0.84	4.83	0.881	< 4.40	0.938	< 5.00	0.815	5.53	0.677	5.99	0.673	5.70	0.953	< 4.99
